Assay results taken from the supplement of paper PMC12217912.
The other results are listed elsewhere or left out. The full chains were built here from the parent and the listed change. Values near 0.05 are background.

B1: TEV protease; numbered along this chain (parent)
chain: MGESLFKGPRDYNPISSSICHLTNESDGHTTSLYGIGFGPFIITNKHLFRRNNGTLVVQSLHGVFKVKDTTTLQQHLVDGRDMIIIRMPKDFPPFPQKLKFREPQREERICLVTTNFQTKSMSSMVSDTSCTFPSGDGIFWKHWIQTKDGQCGSPLVSTRDGFIVGIHSASNFTNTNNYFTSVPKNFMELLTNQEAQQWVSGWRLNADSVLWGGHKVFMVKPEEPFQPVKEATQL

Variants of: B1
Test: raw area under fraction-flipped curve 0-4 h after induction (AUC4h, not background-subtracted), DNA-recorder readout of cleavage of the substrate (dimensionless); higher = more cleavage of the substrate by the protease variant
Conditions: temperature: 34 °C; time window: 0-4 h after rhamnose induction
Procedure: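 In vivo DNA recorder in E. coli TOP10(DE3) ΔrhaA at 34 °C. Each TEVp single-site mutant (parent TEVp 0) is paired with a single-site variant of the 7-mer TEVs (canonical ENLYFQ|S). The substrate sits between flexible linkers in a Bxb1-sfGFP-TEVs-SsrA fusion, so cleavage stabilises Bxb1 and speeds flipping of a recombination array, read by NGS. The value is the raw area under the fraction-flipped curve over 0-4 h after rhamnose induction (AUC4h), with ≥20 reads per time point. It is not background-subtracted; inactive controls average about 0.047.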
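Further: Bxb1 expression induced with 0.2% (w/v) L-rhamnose at OD600 near 0.5, cultures sampled hourly, flipped fraction per protease–substrate barcode pair counted by paired-end Illumina sequencing.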

| Variant | area with substrate ENLYAQS | area with substrate ENLYCQS | area with substrate ENLYDQS | area with substrate ENLYEQS | area with substrate ENLYGQS | area with substrate ENLYHQS | area with substrate ENLYIQS | area with substrate ENLYMQS | area with substrate ENLYNQS | area with substrate ENLYPQS | area with substrate ENLYRQS | area with substrate ENLYSQS | area with substrate ENLYTQS | area with substrate ENLYVQS | area with substrate ENLYWQS | area with substrate ENLYLQS | area with substrate ENLYYQS | area with substrate ENLYKQS | area with substrate ENLYQQS |
| --- | --- | --- | --- | --- | --- | --- | --- | --- | --- | --- | --- | --- | --- | --- | --- | --- | --- | --- | --- |
| I86M | 0.0893 | 0.0813 | 0.0565 | 0.0692 | 0.0591 | 0.067 | 0.129 | 0.107 | 0.0712 | 0.0748 | 0.0513 | 0.0696 | 0.0697 | 0.115 | 0.082 | – | – | – | – |
| I86P | 0.0364 | – | – | 0.0399 | 0.0434 | 0.0383 | 0.0427 | 0.0485 | 0.041 | 0.0427 | – | 0.0502 | – | 0.0302 | – | 0.0404 | 0.04 | – | – |
| H62T | 0.0747 | 0.102 | 0.0581 | 0.0652 | – | 0.0643 | 0.108 | 0.0774 | 0.0892 | – | 0.0613 | 0.049 | 0.0754 | 0.0972 | 0.0898 | – | – | 0.0603 | – |
| H62G | 0.083 | – | 0.0742 | 0.0634 | 0.0553 | 0.0751 | 0.125 | – | 0.0722 | 0.038 | – | 0.0586 | – | – | 0.0816 | – | 0.105 | 0.0576 | – |
| H62Q | 0.0556 | – | 0.0577 | 0.0744 | – | 0.0656 | 0.116 | 0.0951 | 0.0643 | – | 0.0571 | – | 0.0748 | 0.114 | 0.0806 | 0.0729 | – | 0.0609 | 0.0681 |
| G63E | 0.0634 | – | – | – | – | 0.069 | – | 0.0462 | 0.0546 | 0.066 | 0.0538 | – | – | 0.102 | – | – | 0.0312 | – | 0.0609 |
| G63P | 0.0478 | – | 0.04 | 0.0554 | 0.0592 | 0.0621 | 0.0738 | 0.0647 | 0.0705 | 0.0299 | – | 0.0592 | 0.057 | – | 0.0687 | – | – | 0.0404 | 0.0602 |
| V78H | 0.053 | – | – | – | 0.0518 | 0.0527 | – | – | – | 0.0607 | – | 0.0452 | – | – | 0.03 | 0.0637 | – | 0.0578 | – |
| R50S | 0.0814 | – | – | 0.0441 | – | 0.0564 | – | – | 0.0672 | 0.0629 | – | 0.0819 | – | – | – | – | 0.0705 | – | – |
| R50T | 0.0763 | – | – | 0.0439 | 0.0767 | 0.0791 | 0.131 | 0.0927 | 0.0679 | 0.0751 | 0.0636 | 0.0872 | 0.0904 | – | 0.0915 | 0.096 | 0.0753 | 0.0705 | 0.0711 |
| T23F | 0.0664 | – | 0.0622 | 0.0704 | 0.0574 | 0.0701 | 0.116 | – | – | 0.0717 | 0.0703 | 0.0644 | – | 0.0866 | 0.0798 | – | 0.0713 | 0.0622 | 0.059 |
| G2W | 0.0889 | – | 0.0613 | 0.0676 | 0.0415 | – | – | – | – | – | 0.0663 | – | – | – | – | – | – | – | 0.0618 |
| G2V | 0.0951 | – | 0.0434 | 0.0669 | 0.0771 | 0.0693 | 0.157 | 0.108 | – | 0.0912 | – | 0.0854 | 0.121 | 0.069 | 0.13 | 0.0926 | 0.064 | 0.0534 | 0.0549 |
| I84K | 0.0625 | – | 0.0552 | 0.0571 | 0.061 | 0.0632 | 0.0481 | 0.0473 | 0.0581 | 0.0498 | – | – | – | 0.0535 | – | – | 0.0584 | 0.057 | 0.0547 |
| I85S | 0.0667 | – | – | 0.0466 | 0.0541 | 0.0636 | – | – | 0.0712 | 0.0533 | 0.0418 | 0.0584 | 0.0554 | 0.0461 | 0.0502 | – | 0.0402 | 0.0582 | 0.0589 |
| I85Q | 0.053 | – | – | – | 0.0545 | 0.0529 | 0.0499 | 0.0552 | 0.0487 | 0.0532 | – | – | – | 0.075 | 0.0507 | – | 0.0388 | – | 0.0496 |
| I85N | 0.0307 | – | 0.0524 | 0.0486 | 0.0403 | 0.0493 | – | 0.0453 | – | 0.0558 | 0.0444 | 0.0484 | 0.0485 | 0.0401 | 0.0462 | 0.0235 | – | – | – |
| D27F | 0.062 | 0.0805 | 0.0725 | 0.0585 | 0.0835 | 0.0794 | 0.0649 | 0.0975 | 0.0364 | 0.0759 | 0.0529 | 0.0656 | 0.0958 | – | – | – | – | – | 0.0754 |
| K7R | 0.0857 | – | – | 0.0577 | – | – | 0.171 | – | 0.0711 | – | 0.06 | – | – | – | 0.0764 | – | – | 0.0601 | – |
| K7M | 0.0914 | 0.0937 | – | 0.0659 | 0.0686 | – | – | 0.0568 | – | – | 0.0737 | – | 0.071 | – | – | – | 0.0666 | 0.0645 | 0.0859 |
| K7T | 0.0896 | – | 0.0749 | – | – | – | – | 0.0756 | 0.108 | 0.0602 | 0.0785 | – | – | 0.0055 | – | – | – | – | 0.0758 |
| T30H | 0.0696 | 0.0739 | 0.055 | 0.0907 | 0.0621 | 0.066 | – | 0.0759 | 0.0548 | 0.0565 | – | – | 0.0808 | 0.115 | 0.0783 | 0.0873 | – | 0.0398 | 0.0645 |
| S26I | 0.0642 | 0.0771 | 0.0505 | 0.0638 | 0.062 | 0.0463 | 0.0728 | 0.0596 | – | 0.0524 | – | – | 0.0527 | – | 0.084 | 0.0728 | 0.0684 | 0.0629 | 0.0496 |
| R81Q | 0.0612 | 0.0815 | – | 0.0684 | – | 0.0625 | 0.0952 | 0.0612 | – | – | – | – | – | 0.0936 | 0.0454 | – | 0.0637 | 0.0671 | – |
| T72W | 0.0782 | 0.0631 | 0.0394 | 0.0538 | 0.0537 | 0.0664 | – | – | 0.0571 | 0.0577 | 0.0623 | – | 0.0677 | – | 0.0756 | 0.0743 | 0.0585 | – | – |
| M83H | 0.0559 | 0.0486 | 0.061 | 0.0604 | – | 0.0573 | – | 0.0585 | 0.0544 | 0.0557 | 0.0837 | 0.061 | 0.0594 | 0.0549 | 0.0568 | – | 0.0568 | 0.0505 | – |
| T31M | 0.0698 | – | 0.0587 | 0.0853 | – | 0.0712 | 0.11 | 0.0832 | – | – | – | – | 0.13 | 0.0657 | 0.0747 | 0.0811 | – | 0.0616 | 0.0602 |
| P89K | 0.0679 | – | 0.0556 | 0.0526 | – | 0.0473 | 0.131 | – | – | – | – | 0.0783 | – | 0.124 | – | – | – | – | – |
